Measured values: PubChem BioAssay AID463173 (ICCB-Longwood Screening Facility, Harvard Medical School, 2010)
The whole screen tested about 52,000 compounds, of which about 1,700 (3.3%) were called active. Cut-off read from the data, not from the text of the source: active = survival mostly below about 52% (no sharp cut-off); inactive = mostly above about 56%. The list shows a part of the results.

tested on: Wild type; assay: growth inhibition of S. aureus wild type versus tarO mutant, primary screen, teichoic acid synthesis inhibitors, RN4220, OD600 (AID 463173); conditions: S. aureus RN4220 wild type/DeltatarO growth, OD600, 18 h, stronger effect = lower value, screened at 18.75 µg/mL (by protocol)

Compound | survival
CCc1cc(=O)oc2c(C)c(OCC(=O)Nc3ccc(S(=O)(=O)N(CC)CC)cc3)ccc12 | inactive: 69%
CCOc1ccc(C(=O)NCC(c2ccc3c(c2)OCO3)N2CCN(C)CC2)cc1 (configuration not stated) | inactive: 77%
CCOc1ccc2nc(Cl)c(C3CC(c4ccccc4)=NN3C(=O)CCC(=O)O)cc2c1 (configuration not stated) | inactive: 74%
CCOc1ccc(NC(=O)N2CCC(n3c(C)nc4cccnc43)CC2)cc1 | inactive: 69%
Cc1nn2c(C)c(C(=O)NCc3cccc(Br)c3)cnc2c1-c1ccccc1 | inactive: 53%
Cc1ccc(-c2nnc(Nc3ccc(O)cc3)c3ccccc23)cc1S(=O)(=O)NC(C)(C)CO | inactive: 187%
CCOc1ccc(S(=O)(=O)N(CC(=O)Nc2ccc(OC)c(Cl)c2)c2ccccc2)cc1 | inactive: 102%
CNC(=O)C1CCN(S(=O)(=O)c2ccccc2)CC1 | inactive: 109%
Cc1ccc(Cl)cc1N1CCN(C(=O)COc2cc(=O)n(C)c3ccccc23)CC1 | inactive: 90%
O=C(NC1CCCCC1)c1ccco1 | inactive: 102%
Cc1ccc(/C=C/c2onc(C)c2S(=O)(=O)N2CCC(C(=O)N3CCN(c4cc(C)ccc4C)CC3)CC2)cc1 | inactive: 85%
CC(=O)N1CCc2c(sc3c2c(=O)n(Cc2ccccc2)c(=O)n3Cc2ccccc2Cl)C1 | inactive: 98%
COc1ccc(Nc2nc3c(S(=O)(=O)c4ccc(C)cc4)nnn3c3ccsc23)cc1Cl | inactive: 84%
COC(=O)c1cc2sc(Cl)cc2n1Cc1nc(-c2ccccc2C)oc1C | inactive: 85%
COc1ccc(NC(=O)C2CCN(c3ccc(Sc4ccc(C)cc4)nn3)CC2)cc1 | inactive: 74%
CC1CN(C(=O)N2CCC(C(=O)NCc3cccs3)CC2)c2ccccc2O1 (configuration not stated) | inactive: 97%
CCC1CCCCN1CCCNC(=O)c1c(O)nc2cc(C)ccn2c1=O (configuration not stated) | inactive: 91%
COc1cc(-c2nc(-c3ccccc3)c(-c3ccc(Br)cc3)[nH]2)cc(OC)c1O | active: 5%
CCCCN(CC)C(=O)CSc1nc2ccccc2c(=O)n1Cc1ccco1 | inactive: 105%
COc1cccc(CNC(=O)Cn2c(=O)nc(-c3ccccc3F)c3cc(Cl)ccc32)c1 | inactive: 82%
CC1CCN(S(=O)(=O)c2ccc3c(c2)N(CC(=O)NC(C)(C)C)C(=O)CS3)CC1 | inactive: 111%
COc1ccc(Nc2oc(/C=C/c3cc(OC)c(OC)c(OC)c3)nc2C#N)cc1 | inactive: 78%

Compound | survival
COc1ccc(S(=O)(=O)N(CC(=O)NCCc2ccccc2)c2ccc(Cl)cc2)cc1 | inactive: 99%
CCOC(=O)c1ccccc1NC(=O)CSc1cn(CC(=O)N2CCCCCC2)c2ccccc12 | inactive: 86%
Cc1oc2ncnc(N3CCCCC3)c2c1C(=O)N1CCN(c2ccc(Cl)cc2)CC1 | inactive: 75%
O=C(Nc1ccc2c(c1)CCC2)C1CCN(c2ccc(S(=O)(=O)N3CCCC3)cc2)CC1 | inactive: 116%
COc1ccccc1C(=O)Nc1ccc(S(=O)(=O)Nc2nc(C)cc(C)n2)cc1 | inactive: 77%
CCOc1ccc(C(=O)c2oc3ccccc3c2NC(=O)c2cc(=O)c3ccc(C)cc3o2)cc1 | inactive: 132%
CC(=O)SCCC(=O)N1CCn2c3c(c4cc(C)ccc42)CCCC31 (configuration not stated) | inactive: 115%
CCN(Cc1ccccc1)C(=O)c1cc2sccc2n1Cc1ccccc1 | inactive: 108%
COc1ccc(-c2nc3c4ccccc4n(CC(=O)N4CCN(c5ccccc5F)CC4)c(=O)n3n2)cc1 | inactive: 91%
CCc1ccc(NC(=O)CCCc2nnc3n(C(C)CC)c(=O)c4sccc4n23)cc1 (configuration not stated) | inactive: 102%
Cc1ccc(NC(=O)CSc2nnc(NC(=O)NC3CCCCC3)s2)cc1 | inactive: 66%
CCCCN(CC)CCNC(=O)c1nn(C)c2c1CS(=O)(=O)c1ccccc1-2 | inactive: 85%
O=C(Cn1nnc2ccccc21)OCC(=O)c1ccc(Cl)cc1 | inactive: 112%
Nc1ccc(N2CCOCC2)c(N)c1 | inactive: 113%
COC(=O)c1ccccc1NC(=O)c1cc(C)nc2c1c(C)nn2-c1ccc(C)cc1 | inactive: 78%
COc1cccc(OCC(=O)NC2CC(=O)N(c3ccc4c(c3)OCCO4)C2)c1 (configuration not stated) | inactive: 71%
COc1cc(OC)c(NC(=O)n2ncc3cc(Cl)ccc32)cc1Cl | inactive: 101%
COc1ccc(C2CC(=O)c3c([nH]c(C(=O)OC4CCCCCC4)c3C)C2)cc1 (configuration not stated) | inactive: 86%
COc1ccc(OC)c(NC(=O)CSC2=Nc3ccccc3C3=NC(CC(=O)NCc4ccc(F)cc4)C(=O)N23)c1 (configuration not stated) | inactive: 64%
Cc1ccc(Cl)cc1NC(=O)NCc1cccn1Cc1ccc(F)cc1 | inactive: 132%
O=C(Nc1ccccc1O)c1cc(S(=O)(=O)N2CCCC2)ccc1Cl | inactive: 68%
Cc1ccc(NC(=O)N2CCN(c3nnc(C)c4c(C)n(-c5ccc(Cl)cc5)nc34)CC2)c(C)c1 | inactive: 73%

Compound | survival
Cc1ccc(CNC(=O)CSc2ncc(S(=O)(=O)c3ccc(C)c(Cl)c3)c(=O)[nH]2)cc1 | inactive: 68%
COc1ccc2c(c1)c1c(c(=O)n(-c3ccc(OC)c(OC)c3)c(=O)n1CC(=O)N1CCCC1)n2C | inactive: 127%
CCOc1ccc(OCC)c(NC(=O)CCc2nc3cccnc3n2Cc2cccs2)c1 | inactive: 87%
COc1ccc(-c2nc(C)c(CCNC(=O)c3c(F)cccc3F)s2)cc1 | inactive: 82%
COc1cc(Cl)c(C)cc1NC(=O)CSc1nc2c(c(=O)[nH]1)CCCC2 | inactive: 76%
CCOC(=O)c1cccc(NC(=O)CC2C(=O)N(c3ccc(C)cc3)C(=O)N2Cc2cccc(OC)c2)c1 (configuration not stated) | inactive: 82%
CN(C)c1ccc(CNC(=O)c2cnc3sc(N4CCCCCC4)nn3c2=O)cc1 | inactive: 124%
COC(=O)N1CCCc2cc(S(=O)(=O)N3CCN(c4ccccc4)CC3)ccc21 | inactive: 97%
CCCCNC(=O)CCCn1c(=O)c2ccccc2n(Cc2c(C)cc(C)cc2C)c1=O | inactive: 82%
O=C(CN1C(=O)c2cccc3cccc1c23)N1CCCC1 | inactive: 97%
Cc1cccc(Cc2c(C)nc3nc(SCc4ccccc4Cl)nn3c2C)c1 | active: -5%
Cc1ccc(C)c(Cn2c(=O)n(CCC(=O)NCc3ccc4c(c3)OCO4)c(=O)c3sccc32)c1 | inactive: 91%
COc1ccc(C2CC(=O)Nc3c2c(=O)n(C)c2nc4ccccc4n32)cc1 (configuration not stated) | inactive: 98%
CCCC(c1nnnn1Cc1ccccc1)N1CCN(c2ccccc2)CC1 (configuration not stated) | inactive: 105%
COc1ccc(-c2noc(-c3ccc(C)cc3Cl)n2)cc1OC | inactive: 137%
CCOc1ccc(NC(=O)c2sc3ccccc3c2Cl)cc1 | inactive: 83%
COc1cc(Cl)c(C)cc1NC(=O)CSc1cc(-c2ccccc2)nc(C)n1 | inactive: 80%
CCOC(=O)c1[nH]c(C)c(C(=O)NCc2cccc(OC)c2)c1C | inactive: 85%
COc1ccc(CC(=O)NCCc2csc(-c3ccc(C(F)(F)F)cc3)n2)cc1 | active: -6%
CCc1ccccc1NC(=O)Cn1c(=O)n(CC(=O)NCCc2ccccc2)c(=O)c2ccccc21 | inactive: 77%
CS(=O)(=O)n1nc(-c2ccco2)nc1NCc1ccccc1Cl | inactive: 86%
COc1ccc(C(=O)c2cn(Cc3cccc(C)c3)c3cc4c(cc3c2=O)OCO4)cc1 | inactive: 76%

Compound | survival
Cc1c(/C=C(\C#N)C(=O)Nc2cccc(Cl)c2)c2ccccc2n1Cc1ccccc1 | inactive: 86%
COC(=O)c1sc2cccc(F)c2c1S(=O)(=O)Nc1ccc(C)cc1Cl | inactive: 63%
O=C(NN1C(=O)C2C3c4ccccc4C(c4ccccc43)C2C1=O)C1CC1 (configuration not stated) | inactive: 117%
CC1CCN(CC(=O)Nc2ccc3ccccc3c2)CC1 | inactive: 110%
Cc1ccc(NS(=O)(=O)c2ccc3c(c2)[C@H]2C=CC[C@H]2[C@@H](c2ccc(F)cc2)N3)cc1C | inactive: 63%
Cn1c(=O)c2c(SCC(=O)NCc3ccc(F)cc3)nc(-c3ccccc3Cl)nc2n(C)c1=O | inactive: 71%
Cc1ccc(NC(=O)CSc2nc3ccc(NC(=O)COc4ccc(C)cc4)cc3s2)cc1 | inactive: 88%
COc1ccccc1N1CCN(C(=O)CCn2nc(C)c(S(=O)(=O)N3CCCC3)c2C)CC1 | inactive: 90%
COc1ccc2[nH]c(=O)c(CN(Cc3ccc(C)cc3)C(C)=O)cc2c1 | inactive: 115%
O=C(Nc1ccc2[nH]c(=O)c(=O)[nH]c2c1)c1cccc(F)c1 | inactive: 140%
O=C(Nc1nnc(C2CC(=O)N(c3ccc(Cl)cc3)C2)s1)c1ccco1 (configuration not stated) | inactive: 85%
Cc1ccc(SCc2nc(-c3ccc(C(=O)Nc4cc(C)ccc4C)cc3)oc2C)cc1 | inactive: 129%
Cc1nc2c(-c3ccccc3)c(C)nn2c(C)c1CCC(=O)Nc1ccccc1F | inactive: 85%
Cn1c(=O)[nH]c(=O)c2[nH]c(NCCO)nc21 | inactive: 104%
Cc1ccccc1C1=CCN(c2ncc(NC(=O)c3ccc(Cl)cc3)cc2C(=O)O)CC1 | inactive: 69%
Cc1nc2nc(SCC(=O)NCCc3ccc(Cl)cc3)nn2c(C)c1Cc1ccccc1Cl | inactive: 80%
O=C1CC(c2ccc(F)cc2)c2c(c3ccccc3[nH]c2=O)O1 (configuration not stated) | inactive: 74%
CCOC(=O)c1ccc(NC(=O)CSc2nccn2-c2cc(C)cc(C)c2)cc1 | inactive: 76%
CCOc1ccccc1NC(=O)Nc1cc2c(cc1N1CCCCC1)n(CC)c(=O)n2CC | inactive: 70%
CC(Sc1nc(-c2ccccc2)cc(C(F)(F)F)n1)C(=O)N1CCCC1 (configuration not stated) | inactive: 105%
CC(=O)c1ccc(N2CCN(C(=O)CCn3cnc4onc(-c5ccc(F)cc5)c4c3=O)CC2)cc1 | active: -6%
